Data as given in the supplement of paper PMC8728848.
This is one part of the list.

How the values were obtained:
Assay in all cases: glycan array binding signal (z-score within array); higher = stronger binding
Conditions in all cases: glycan notation: IUPAC condensed, linker removed
[1] = target: Fuc(a1-2)Gal3S(b1-4)GlcNAc
Outline: (§1)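 From the Consortium for Functional Glycomics database, 3228 arrays were curated, keeping only those whose protein sequence was available. Binding is given as a within-array Z-score averaged across arrays sharing a protein sequence and across linkers. Negative Z-scores can be read as non-binding.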

[2] = target: Fuc(a1-2)Gal6S(b1-3)GlcNAc
Outline: as §1

[3] = target: Fuc(a1-2)Gal6S(b1-3)GlcNAc6S
Outline: as §1

Fuc(a1-2)Gal6S(b1-4)Glc = target: Fuc(a1-2)Gal6S(b1-4)Glc
Outline: as §1

[4] = target: Fuc(a1-2)Gal6S(b1-4)Glc6S
Outline: as §1

[5] = target: Fuc(a1-2)Gal6S(b1-4)GlcNAc
Outline: as §1

Fuc(a1-2)GlcNAc = target: Fuc(a1-2)GlcNAc
Outline: as §1

Fuc(a1-2)[Gal(a1-3)]Gal = target: Fuc(a1-2)[Gal(a1-3)]Gal
Outline: as §1

[6] = target: Fuc(a1-2)[Gal(a1-3)]Gal(b1-3)GalNAc
Outline: as §1

[7] = target: Fuc(a1-2)[Gal(a1-3)]Gal(b1-3)GalNAc(b1-3)Gal(a1-4)Gal(b1-4)Glc
Outline: as §1

[8] = target: Fuc(a1-2)[Gal(a1-3)]Gal(b1-3)GlcNAc
Outline: as §1

[9] = target: Fuc(a1-2)[Gal(a1-3)]Gal(b1-3)GlcNAc(b1-2)Man(a1-3)[Fuc(a1-2)[Gal(a1-3)]Gal(b1-3)GlcNAc(b1-2)Man(a1-6)]Man(b1-4)GlcNAc(b1-4)GlcNAc
Outline: as §1

[10] = target: Fuc(a1-2)[Gal(a1-3)]Gal(b1-3)GlcNAc(b1-2)Man(a1-3)[Fuc(a1-2)[Gal(a1-3)]Gal(b1-3)GlcNAc(b1-2)Man(a1-6)]Man(b1-4)GlcNAc(b1-4)[Fuc(a1-6)]GlcNAc
Outline: as §1

[11] = target: Fuc(a1-2)[Gal(a1-3)]Gal(b1-3)GlcNAc(b1-3)GalNAc
Outline: as §1

[12] = target: Fuc(a1-2)[Gal(a1-3)]Gal(b1-3)GlcNAc(b1-6)GalNAc
Outline: as §1

[13] = target: Fuc(a1-2)[Gal(a1-3)]Gal(b1-4)Glc
Outline: as §1

[14] = target: Fuc(a1-2)[Gal(a1-3)]Gal(b1-4)GlcNAc
Outline: as §1

[15] = target: Fuc(a1-2)[Gal(a1-3)]Gal(b1-4)GlcNAc(b1-2)Man
Outline: as §1

[16] = target: Fuc(a1-2)[Gal(a1-3)]Gal(b1-4)GlcNAc(b1-2)Man(a1-3)[Fuc(a1-2)[Gal(a1-3)]Gal(b1-4)GlcNAc(b1-2)Man(a1-6)]Man(b1-4)GlcNAc(b1-4)GlcNAc
Outline: as §1

[17] = target: Fuc(a1-2)[Gal(a1-3)]Gal(b1-4)GlcNAc(b1-2)Man(a1-3)[Fuc(a1-2)[Gal(a1-3)]Gal(b1-4)GlcNAc(b1-2)Man(a1-6)]Man(b1-4)GlcNAc(b1-4)[Fuc(a1-6)]GlcNAc
Outline: as §1

[18] = target: Fuc(a1-2)[Gal(a1-3)]Gal(b1-4)GlcNAc(b1-3)GalNAc
Outline: as §1

[19] = target: Fuc(a1-2)[Gal(a1-3)]Gal(b1-4)GlcNAc(b1-3)[Fuc(a1-2)[Gal(a1-3)]Gal(b1-4)GlcNAc(b1-6)]GalNAc
Outline: as §1

[20] = target: Fuc(a1-2)[Gal(a1-3)]Gal(b1-4)GlcNAc(b1-6)GalNAc
Outline: as §1

B1: Gal 7 (Homo sapiens) (protein)
chain: MSNVPHKSSLPEGIRPGTVLRIRGLVPPNASRFHVNLLCGEEGGSDAALHFNPRLDTSEVVFNSKEGGSWGREERGPGVPFGRGQPFEVLIIASDDGFKAVVGDAQYHHFRHRLPLARVRLVEVGGDVQLDSVRIF
- glycan array binding signal (z-score) [1]: -0.264
- glycan array binding signal (z-score) [2]: -0.241
- glycan array binding signal (z-score) [3]: 0.593
- glycan array binding signal (z-score) (Fuc(a1-2)Gal6S(b1-4)Glc): -0.204
- glycan array binding signal (z-score) [4]: -0.183
- glycan array binding signal (z-score) [5]: -0.328
- glycan array binding signal (z-score) (Fuc(a1-2)GlcNAc): -0.201
- glycan array binding signal (z-score) (Fuc(a1-2)[Gal(a1-3)]Gal): -0.317
- glycan array binding signal (z-score) [6]: -0.273
- glycan array binding signal (z-score) [7]: 0.431
- glycan array binding signal (z-score) [8]: 0.331
- glycan array binding signal (z-score) [9]: -0.015
- glycan array binding signal (z-score) [10]: 0.007
- glycan array binding signal (z-score) [11]: -0.115
- glycan array binding signal (z-score) [12]: -0.288
- glycan array binding signal (z-score) [13]: 0.681
- glycan array binding signal (z-score) [14]: 0.508
- glycan array binding signal (z-score) [15]: -0.249
- glycan array binding signal (z-score) [16]: -0.086
- glycan array binding signal (z-score) [17]: 0.088
- glycan array binding signal (z-score) [18]: -0.136
- glycan array binding signal (z-score) [19]: -0.267
- glycan array binding signal (z-score) [20]: -0.287
